Out of some 120,000 compounds screened, about 5,300 (4.4%) were called active. This list was built around the results that the source calls inconclusive (neither active nor inactive); the mix of calls is not that of the screen. The call rests on the fitted dose curve; in most records, active means well fitted inhibition curve with a large enough effect; inconclusive means small, poorly fitted or top-dose-only effect; inactive means no such curve, though single readings can be large or run the other way. Potencies of inconclusive entries are doubtful fits and often do not repeat.
Assay: qHTS Primary assay for Inhibitors of Plasmodium falciparum Dd2 growth in vitro; further: nearly all actives have a fitted effect of over 65% in size;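 on activity, negative = inhibition: plate controls were DMSO vehicle for no effect and reference drug for full effect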
Details: P. falciparum Dd2 growth, SYBR Green, 72 h; activity, negative = inhibition: at 28.9 µM (top of the series) unless noted; series mostly up to 28.9 µM
Summary of the method: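 Infected erythrocytes (Dd2, 0.3% parasitemia, 2.5% hematocrit final) are added to compound in RPMI-1640/Albumax II medium, grown 72 h at 37C in low oxygen, then lysed with saponin/Triton-X containing SYBR Green and read by fluorescence.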
For COCCNC(=O)N1CCc2n[nH]c(=O)n2CC1, the Potency was “inactive”.
With CNC(=O)NC[C@H]1CCN(Cc2scnc2C)C[C@H]1N(C)C the Potency was “inactive”.
For CCn1nc(-c2cccc(-c3ccnn3C)c2)nc1N(C)C, the Potency was “inactive”.
With O=c1cccc2n1CC1CC2CN(Cc2cc3n(n2)CCNC3)C1 (stereo not drawn) the Potency was “inactive”.
With CCOC(=O)c1c(C)[nH]c(C)c1S(=O)(=O)N1CCCC(C(=O)N2CCN(c3cc(C)ccc3C)CC2)C1 (stereo not drawn) the Potency was active: 1.26 µM.
With O=C(NC1CC1)c1ccc2c(c1)OCCN(c1cccc(OC(F)(F)F)c1)C2 the Potency was active: 3.55 µM.
With O=C(c1ccc2c(c1)OCO2)N1CCC2(C1)C(=O)N(c1ccccc1)c1ccccc12 (stereo not drawn) the Potency was inconclusive: 10 µM [inhibitor, single point].
For CC(C)C(=O)N1CCC(Oc2cccc(F)c2)C1 (stereo not drawn), the Potency was inconclusive: 10 µM [inhibitor, single point].
In the case of COc1ccc(-c2noc(-c3ccc(N4CCCOCC4)nc3)n2)cc1, the Potency is reported as “inactive”.
In the case of CCOc1ccccc1CNC(=O)CCCN1C(=O)CCn2nc(-c3cccn3C)cc21, the Potency is reported as inconclusive: 7.08 µM [inhibitor, partial curve, poor fit].
In the case of CCOc1ccc(CC(=O)NC2CCN(c3cc(-c4ccccc4)[nH]n3)C2)cc1OCC (stereo not drawn), the Potency is reported as active: 7.94 µM.
With COc1ccc(OC)c(S(=O)(=O)N[C@H]2CO[C@H]3[C@@H]2OC[C@H]3OC(=O)Nc2cccc(C(C)=O)c2)c1 the Potency was inconclusive: 2 µM [inhibitor, partial curve].
For COc1ccc(OC)c(CN2CCNc3cc(-c4ccccc4)ncc3C2)c1, the Potency was inconclusive: 31.6 µM [inhibitor, single point].
For O=C1CCCN1CCCN1C(=O)[C@H]2CN(Cc3ccccc3C(F)(F)F)C[C@H]2C1=O, the Potency was inconclusive: 7.94 µM [inhibitor, partial curve].
In the case of COC[C@H]1C[C@@H](NCc2ccc(F)cc2)[C@H](O)[C@@H]1O, the Potency is reported as “inactive”.
In the case of CC1=C[C@@H](CN2CCC(O)CC2)[C@H](C(C)C)C[C@H]1Cc1nnc(-c2ccccc2F)o1, the Potency is reported as active: 8.91 µM.
For COc1ccc(Cl)cc1NC(=O)[C@H]1O[C@@H]2OC(C)(C)O[C@@H]2[C@H]2OC(C)(C)O[C@H]21, the Potency was inconclusive: 3.55 µM [inhibitor, partial curve, poor fit].
With CC(C)c1nnc(C2CN(C(=O)c3nccc4ccccc34)CC23CCOCC3)o1 (stereo not drawn) the Potency was “inactive”.
With CCc1nc2c(c(-c3ccc(Cl)cc3)n1)CCN(C(=O)c1ccccc1)CC2 the Potency was inconclusive: 17.8 µM [inhibitor, single point].
In the case of Cc1ccc(C)c(CN2C(=O)c3ccccc3S(=O)(=O)c3ccc(C(=O)N4CCOCC4)cc32)c1, the Potency is reported as inconclusive: 7.08 µM [inhibitor, partial curve, poor fit].
For Cc1ccc(-c2nnc(C3CN(C(=O)C4CCCCC4)CC34CCOCC4)o2)cc1 (stereo not drawn), the Potency was inconclusive: 11.2 µM [inhibitor, single point].
With COc1ccc(Nc2nnc(-c3ccc(C)c(S(N)(=O)=O)c3)c3ccccc23)cc1 the Potency was inconclusive: 10 µM [inhibitor, single point].
For COc1ccc(CCNc2oc(COc3ccc(Cl)cc3)nc2C#N)cc1OC, the Potency was inconclusive: 11.2 µM [inhibitor, partial curve, poor fit].
With COc1cccc(O)c1CN1CCC(C(Cc2ccc(F)cc2)N(C)Cc2cn(C)nc2C)CC1 (stereo not drawn) the Potency was inconclusive: 11.2 µM [inhibitor, single point].
For CNc1nccc(N2CCC(CC(=O)NC3CCN(Cc4ccccc4)CC3)CC2)n1, the Potency was inconclusive: 2 µM [inhibitor, partial curve, poor fit].
With CCc1ccc2nc(N3CCN(C(=O)c4ccco4)CC3)sc2c1 the Potency was “inactive”.
For COC[C@@H]1CN(C(=O)c2ccc(F)cc2F)C[C@H]1c1ccncc1, the Potency was “inactive”.
For CC(C)Oc1cccc2c1c(NC(=O)C1CCOCC1)nn2C, the Potency was “inactive”.
In the case of CCc1ccc(-c2nc(SCC(=O)NCCOC)c(-c3ccc(C)cc3)[nH]2)cc1, the Potency is reported as inconclusive: 17.8 µM [inhibitor, single point].
In the case of CCc1ccc(CN2CCc3nc(Nc4ccc5c(c4)OCCO5)ncc3C2)cc1, the Potency is reported as inconclusive: 20 µM [inhibitor, single point].
For COc1ccccc1N1CCN(CCCNC(=O)Cn2ncc3c([nH]c4ccccc43)c2=O)CC1, the Potency was “inactive”.
With Cc1ncoc1C(=O)N1CC(Oc2ccc(-c3nc(-c4ccccc4)no3)cc2)C1 the activity, negative = inhibition was inactive: 0.129% [at 5.79 µM].
In the case of CCOc1cccc(CN(C)Cc2cn[nH]c2-c2ccc(F)cc2)c1O, the Potency is reported as inconclusive: 11.2 µM [inhibitor, single point].
For Cn1ncc(N2CCOC(CCNC3CCC4(CCNCC4)CC3)C2)cc1=O (stereo not drawn), the Potency was “inactive”.
In the case of COc1cccc(C2C(C(=O)Nc3cccnc3)=C(C)Nc3nc(SCc4ccccc4)nn32)c1 (stereo not drawn), the Potency is reported as inconclusive: 17.8 µM [inhibitor, single point].
With CCOC(=O)c1ccc(NC(=O)C2CCCN(c3ncnc4onc(C)c34)C2)cc1 (stereo not drawn) the Potency was active: 7.94 µM.
For CCNC(=O)N1CCC(Cc2ccc(C(=O)NCCN3CCCCC3)cc2)CC1, the Potency was inconclusive: 22.4 µM [inhibitor, partial curve, poor fit].
In the case of COc1ccc(-c2noc([C@@H]3CCCN3C(=O)c3cc(F)cc(F)c3)n2)cc1OC, the Potency is reported as inconclusive: 20 µM [inhibitor, single point].
With Cc1cccc(S(=O)(=O)c2cn(Cc3ccccc3)c3cc(N4CCCC(C)C4)c(F)cc3c2=O)c1 (stereo not drawn) the Potency was “inactive”.
For O=C(CC1CCCCC1)Nc1ccc(-c2nnc3n2CCCC3)cc1, the Potency was inconclusive: 11.2 µM [inhibitor, partial curve, poor fit].
In the case of O=C(O)CCC(=O)NC[C@H]1Cn2c(-c3ccc(Cl)cc3)cnc2CO1, the Potency is reported as “inactive”.
With O=C(Nc1ccc([C@H]2OCC(=O)N(Cc3ccncc3)[C@@H]2CO)cc1)c1ccc(C(F)(F)F)cc1 the Potency was inconclusive: 0.316 µM [inhibitor, full curve, poor fit].
In the case of COc1ccc(OCc2nc(C3CN(C(=O)C4(c5ccccc5)CC4)C3)no2)cc1, the Potency is reported as inconclusive: 12.6 µM [inhibitor, single point].
For Cc1ccc(CC(=O)Nc2c(C(=O)N3CCN(c4ccccc4F)CC3)oc3ccccc23)cc1, the Potency was inconclusive: 11.2 µM [inhibitor, partial curve, poor fit].
With CC(C)OCCCN1C(=O)c2[nH]nc(-c3ccccc3O)c2C1c1ccc(OCc2ccccc2)cc1 (stereo not drawn) the Potency was inconclusive: 1.41 µM [inhibitor, partial curve, poor fit].
For Cc1ccc(NS(=O)(=O)c2ccc3c(c2)NC(=O)CCS3)c(Br)c1, the Potency was inconclusive: 5.01 µM [inhibitor, partial curve, poor fit].
In the case of O=C1NCc2ccccc2CC12CCCN2CC1=CCCCC1 (stereo not drawn), the Potency is reported as inconclusive: 11.2 µM [inhibitor, single point].
With CC(C)NC(=O)N1CCCCCC1CN1CCCC1 (stereo not drawn) the Potency was inconclusive: 17.8 µM [inhibitor, single point].
For CCN1CCN(C(=O)CN2CC3CC(C2)[C@H]2CCCC(=O)N2C3)CC1 (stereo partly drawn), the Potency was “inactive”.
In the case of COC[C@H]1CCCN1C(=O)C[C@@H]1O[C@H](CNC(=O)NC(C)C)[C@@H](O)[C@H]1O, the Potency is reported as “inactive”.
For O=C(NC1CCCCC1)[C@@H]1C[C@@H](O)CN1C1CCN(C(=O)c2n[nH]c3ccccc23)CC1, the Potency was inconclusive: 2 µM [inhibitor, single point].
For Cc1nc(N2CCC(NC(=O)COc3ccccc3)CC2)cc(C(F)(F)F)n1, the Potency was “inactive”.
With Cn1cccc1C(=O)N1C[C@@H](Oc2cccnc2)C[C@H]1C(=O)N1CCCC1 the Potency was “inactive”.
For COc1cccc(C(=O)N2CCC(Oc3ccccc3-c3nc(C4CCOCC4)no3)C2)c1 (stereo not drawn), the Potency was “inactive”.
In the case of COc1ccc2c(Sc3ccc(Cl)cc3)c(C(=O)NCCCN3CCCCC3)[nH]c2c1, the Potency is reported as inconclusive: 10 µM [inhibitor, single point].
In the case of O=C1CC[C@]2(C(=O)NCc3ccccn3)CCCC[C@H]2N1CCc1ccccc1, the Potency is reported as inconclusive: 10 µM [inhibitor, single point].
For CCn1nccc1C(=O)N1CCC2(CC1)c1[nH]c3ccccc3c1CCN2C, the Potency was “inactive”.
In the case of CC(C)N(C(=O)Cn1cc(S(=O)(=O)Cc2ccc(C(F)(F)F)cc2)c2ccccc21)C(C)C, the Potency is reported as inconclusive: 8.91 µM [inhibitor, single point].
In the case of COc1ccc(C(=O)N2CCC(CC(=O)NC3CC3)C2)cc1 (stereo not drawn), the Potency is reported as “inactive”.
With COc1ccc(NC(=O)Cn2c(N3CCC(C)CC3)nc(C)cc2=O)cc1 the Potency was “inactive”.
For O=C(Nc1nccs1)C1c2ccccc2C(=O)N(C2CCCC2)C12CCCC2 (stereo not drawn), the Potency was inconclusive: 1.41 µM [inhibitor, full curve, poor fit].
For Cc1cnc(C2CC2)n1C1CCCN(C(=O)c2ccco2)C1 (stereo not drawn), the Potency was inconclusive: 14.1 µM [inhibitor, partial curve, poor fit].
For COc1ccc(CCNC(=O)NCc2noc3ccc(C)cc23)c(OC)c1, the activity, negative = inhibition was inconclusive: -198% [inhibitor] [at 5.79 µM].
For COc1ccc(C2Cn3nnc(-c4noc(-c5ccoc5)n4)c3CO2)cc1 (stereo not drawn), the Potency was inconclusive: 8.91 µM [inhibitor, partial curve, poor fit].
With COc1ccc(-c2ccnc(-c3nnc(C)n3CCN(C)C)c2)cc1OC the Potency was “inactive”.
In the case of CCN(CC)c1cc2c(cc1F)c(=O)c(S(=O)(=O)c1ccccc1)cn2Cc1ccccc1, the Potency is reported as active: 12.6 µM.
For C=C(C)CN(CC)C(=O)c1coc(CN2CCN(C/C=C/c3ccccc3)CC2)n1, the Potency was “inactive”.
With COCCN1CC2(CCCN(c3cc(C)c4ccccc4n3)C2)CCC1=O (stereo not drawn) the Potency was “inactive”.
Potency means the concentration at half of the fitted maximal effect; tags describe the fitted curve by direction and shape.
